# Test results taken from PubChem BioAssay AID1347073 (National Center for Advancing Translational Sciences (NCATS), 2019).
# Out of some 45,000 compounds screened, about 200 (0.44%) were called active. Not shown: some 7% with an inconclusive outcome. The call rests on the fitted dose curve; in most records, active means well fitted activation curve with a large enough effect; inconclusive means small, poorly fitted or top-dose-only effect; inactive means no such curve, though single readings can be large or run the other way. The list shows a part of the results.
# Assay: qHTS of TDP-43 Inhibitors: NCGC Sytravon Library Screen; further: 0% is about no effect; nearly all actives have a fitted effect of over 55% in size
# Details: yeast TDP-43 toxicity rescue, BacTiter-Glo growth, 24 h; series mostly up to 46.1 µM; growth rescue (activation): at the top concentration
# Summary of the method: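 TDP-43-expressing yeast, pregrown in raffinose, seeded at OD600 0.02 in galactose medium with compound for 24 hr at 30 deg C. Growth read by BacTiter-Glo luminescence, so rescue of toxicity appears as activation.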
Compound,growth rescue (activation),Potency
COc1ccc(NC(=O)c2cc(-c3ccc(F)cc3OC)n[nH]2)c(OC)c1,inactive: 4.68%,
O=C(NCCCN1CCOCC1)c1cc2c(=O)[nH]c3ccccc3c2s1,inactive: 0.449%,
CCN(CC)c1ccc(NC(=O)CSc2nc(C3CC3)nc3ccccc23)cc1C,inactive: -3.76%,
COc1ccc2[nH]c3c(=O)n4c(nc3c2c1)SCC4,inactive: 17%,
Cc1ccc(OCC(=O)NC2CC(C)(C)NC(C)(C)C2)cc1C,inactive: -1.92%,
CCCOc1cccc(C(=O)N(Cc2ccc(C)o2)C2CCS(=O)(=O)C2)c1 (stereo not given),inactive: 1.2%,
COCCNC(=S)Nc1cc(OC)c(NC(=O)c2ccco2)cc1OC,inactive: 5.64%,
CCc1nc2ccccc2c(C(=O)OCC(=O)NC2CCCC2)c1C,inactive: 13.2%,
O=C(CN1C(=O)NC(c2ccccc2)(c2ccccc2)C1=O)NCc1ccco1,inactive: 15.2%,
COCCn1c(N)c(N(Cc2ccccc2)C(=O)Cc2ccccc2F)c(=O)[nH]c1=O,inactive: -4.52%,
Nn1c(SCC(=O)NCCCc2ccccc2)nnc1-c1cccnc1,inactive: 32.9%,
Cc1cccc(-n2c(C)cc(C(=O)NC3CCCCC3)c2C)c1,inactive: 12.3%,
CCN1C(=O)/C(=C\N2CCN(c3cccc(Cl)c3)CC2)SC1=S,inactive: -8.07%,
Cc1sc2ncnc(OCC(=O)NC(C)C(C)C)c2c1C (stereo not given),inactive: -19.5%,
COc1ccccc1C(=O)OCC(=O)NC(C)CCc1ccccc1 (stereo not given),inactive: 15%,
CCCOc1ccc(N2C(=O)CC(N(Cc3ccco3)C(=O)CCC(=O)O)C2=O)cc1 (stereo not given),inactive: 19.1%,
O=C(NCCN1CCOCC1)c1ccc(Cl)c(S(=O)(=O)N2CCCCC2)c1,inactive: -28.7%,
CC(C)(C)n1nc2c(c1NC(=O)c1cccc(C(F)(F)F)c1)CS(=O)C2 (stereo not given),inactive: 25.2%,
Cc1ccc(NC(=O)CN2C(=O)NC(Cc3c[nH]c4ccccc34)C2=O)cc1S(=O)(=O)N1CCCCC1 (stereo not given),inactive: 17%,
CCc1ccc(NC(=O)CCS(=O)(=O)c2ccc3c(c2)n(C)c(=O)c(=O)n3C)cc1,inactive: 2.96%,
CCOC(=O)C1(Cc2ccc(OC)cc2)CCN(C(=O)CN2CCOC2=O)CC1,inactive: -3.18%,
CCC(c1nnnn1Cc1ccccc1)N(Cc1ccco1)Cc1cc2cc(OC)ccc2[nH]c1=O (stereo not given),inactive: 18.5%,
CCC(=O)N(CCO)Cc1cc2ccc(C)c(C)c2[nH]c1=O,inactive: -9.93%,
COc1ccccc1NS(=O)(=O)c1cccc(C(=O)N/N=C(\C)c2ccc3c(c2)OCCO3)c1,inactive: -5.38%,
Cc1c(Cl)cccc1NC(=O)CNC(=O)c1ccccc1F,inactive: -1.13%,
CSc1cccc(NC(=O)C2C3C=CC4(O3)C2C(=O)N(CCCN2CCOCC2)C4C(=O)NC2CCCCC2)c1 (stereo not given),inactive: 8.3%,
Cc1ccccc1OCC(O)Cn1c(=N)n(CCN2CCCCC2)c2ccccc21 (stereo not given),inactive: 1.63%,

Compound,growth rescue (activation),Potency
Cc1cc(C(=O)OCC(=O)Nc2ccccc2C(F)(F)F)on1,inactive: -9.45%,
CC1(C)C2CCC1(CS(=O)(=O)NCc1ccc(C(=O)O)cc1)C(=O)C2 (stereo not given),inactive: 18.2%,
COc1ccc(CNC(=O)C/C(C)=N/NC(=O)Cc2ccc(OC)c(OC)c2)cc1,inactive: 6.43%,
O=[N+]([O-])c1cccc(-c2noc(COc3ccccc3)n2)c1,inactive: 11.2%,
CCn1c(C)nc2c(C)[n+](CC(=O)c3ccc(Br)cc3)ccc21,inactive: -8.65%,
CC1(c2cccc(Br)c2)NC(=O)N(CC(=O)N2CCc3ccccc32)C1=O (stereo not given),inactive: -7.61%,
O=C(CCC(=O)NC1CCCCC1)N/N=C/c1ccncc1,inactive: -15.4%,
COc1cccc(OC)c1C(=O)NC(=S)Nc1ccc2c(c1)C(=O)N(C)C2=O,inactive: -13.6%,
Cc1ccc(-c2cc3c(n2-c2ccc(C(=O)O)cc2)CCCC3=O)cc1,inactive: -26.1%,
CCN=c1scc(-c2ccc3c(c2)NC(=O)CO3)n1N=C1CCCC1,,inactive
Cc1cccc(C)c1NC(=S)NCCCN1CCCC1=O,inactive: -8.76%,
C=CCNC(=O)c1ccccc1NC(=O)C1COc2ccccc2O1 (stereo not given),inactive: 9.41%,
Cc1ccc(-n2cc(C(=O)c3ccccc3O)cn2)cc1,inactive: 17.9%,
COc1ccc(NC(=O)c2cc(Cl)ccc2Cl)c([N+](=O)[O-])c1,inactive: 11.3%,
Cc1cccc(C)c1NC(=O)CN(c1ccccn1)S(=O)(=O)c1ccc(F)cc1,inactive: -11.1%,
CCOC(=O)c1c(NC(C)=O)c2c3c(sc2n1Cc1nc(-c2cccc(Cl)c2)oc1C)CCCC3,inactive: 8.31%,
c1ccc(CSc2ncnc3c2cnn3-c2ccccc2)cc1,inactive: 18.8%,
COc1ccc(NC(=O)C(=O)NCCC2=CCCCC2)c(OC)c1,inactive: 20.8%,
COC(=O)c1ccc(OC(=O)c2cccnc2)cc1,inactive: -10.2%,
O=[N+]([O-])c1cc(Cl)ccc1N1CCOCC1,inactive: 4.97%,
O=[N+]([O-])c1cccc(P(=O)(O)c2cccc([N+](=O)[O-])c2)c1,inactive: 4.78%,
CCCCNS(=O)(=O)c1ccc(NC(=O)c2cccs2)cc1,inactive: 2.13%,
COCC(C)NC(=O)Cc1ccc(F)cc1 (stereo not given),inactive: 5.41%,
Cc1ccccc1OCc1nc2ccccc2c(=O)n1/N=C/c1cccc([N+](=O)[O-])c1,inactive: 14.6%,
CC(=O)c1cccc(-c2ccnc3c2CC(C(=O)NC(C)C)O3)c1 (stereo not given),inactive: 14.7%,
CC(C)CCn1c(=O)c2ccccc2n2c(CN3CCCC3)nnc12,inactive: 6.01%,
CC1(C(=O)Nc2cccc(NS(C)(=O)=O)c2)CCN1CCc1ccccc1 (stereo not given),inactive: 4.83%,

Compound,growth rescue (activation),Potency
COC(=O)c1cc(N2C(=O)C3C4C=CC(CC4)C3C2=O)ccc1Cl (stereo not given),inactive: -15%,
Cc1ccc(S(=O)(=O)N2CCOCC2)cc1NC(=O)COC(=O)c1ccc(Cl)nc1,inactive: 1.98%,
CC(=O)Nc1ccc(S(=O)(=O)NCC(=O)Nc2ccc3c(c2)OCO3)cc1,inactive: 9.97%,
Nc1cc(C(F)(F)F)cc2c1SCC(=O)N2,inactive: 23.2%,
Cc1cccc(Cc2nnc(CCC(=O)N(CC3CC3)CC3CCCO3)o2)c1 (stereo not given),inactive: 13.5%,
CC(=O)/C(=N/Nc1ccc(Br)cc1)Sc1cccc2cccnc12,inactive: 7.27%,
CC(OC(=O)CCc1nc2ccccc2c(=O)[nH]1)C(=O)Nc1ncc(Cl)cc1Cl (stereo not given),inactive: 4.87%,
CCc1nc2c(OCc3ccccc3C(=O)OC)cccn2c1N(C)C(=O)c1cccs1,inactive: 7.98%,
CCOc1ccccc1NC(=S)N(CCC(C)C)C1CCN(C(C)=O)CC1,inactive: -6.67%,
CCOC(=O)CCCCCN(Cc1ccccc1)S(=O)(=O)c1ccc([N+](=O)[O-])cc1,inactive: -7.9%,
O=C(NCCc1ccccc1)c1cc([N+](=O)[O-])ccc1N1CCOCC1,inactive: 10.3%,
COc1cc(C2C(C#N)=C(N)Oc3cc(C)oc(=O)c32)cc(OC)c1OC (stereo not given),inactive: -3.19%,
COC(CC(=O)NNC(=S)Nc1ccccc1)OC,inactive: 1.93%,
O=C(Nc1ccccc1C(=O)O)c1cccc(NC(=O)c2ccc(Br)o2)c1,inactive: -48.6%,
COc1ccc(C(=O)N2CCCC(O)C2)cc1OC1CCN(C(C)C)CC1 (stereo not given),inactive: 9.43%,
CC(C)c1nc(C#N)c(N2CCOCC2)o1,inactive: 20.5%,
CCN(CC)S(=O)(=O)c1ccc(C)c(NC(=S)N2CCN(c3ccccn3)CC2)c1,inactive: -0.116%,
Cc1ccc(SCCNC(=O)c2ccc(CN3CCOCC3)cc2)cc1,inactive: 6.51%,
CC1CCCC(NC(=O)COC(=O)Cc2ccc(Br)cc2)C1C (stereo not given),inactive: 7.56%,
O=C(CNS(=O)(=O)c1ccccc1)NNC(=O)C(Cl)Cl,inactive: -3.53%,
CCNc1c(NC(=O)C2CCC(C)CC2)c(=O)oc2ccccc12 (stereo not given),inactive: 13.3%,
Cc1ccc(CNC(=O)c2cc3c(s2)-c2ccccc2SC3)cc1,inactive: 9.04%,
CCOc1ccc(NC(=O)Nc2ccccc2C(N)=O)cc1,inactive: -57.1%,
CCc1ccc(N(C2C=CS(=O)(=O)C2)S(=O)(=O)c2ccccc2)cc1 (stereo not given),inactive: 11.4%,
COc1ccc(/C=C(\C#N)C(=O)OCCNC(=O)c2ccncc2)cc1,inactive: 2.02%,
CCOC(=O)c1cnc(Nc2nc3ccccc3o2)nc1CSC(=S)N(CC)CC,inactive: -3.65%,
CC(C)COc1ccc(C(=O)Nc2cccc(-c3nc4ccccc4[nH]3)c2)cc1,inactive: 29.8%,

Compound,growth rescue (activation),Potency
CC1=CCC2C(=O)N(c3ccc(S(N)(=O)=O)cc3)C(=O)C2C1 (stereo not given),inactive: -14.2%,
CCCC(=O)N1CCC1(C)C(=O)Nc1ncc(C(=O)OC)s1 (stereo not given),inactive: -5.77%,
Cc1ccc(C(=O)N/C(=C\c2ccc(F)cc2)C(=O)NCCN2CCOCC2)cc1,inactive: -7.16%,
O=C(/C=C/c1ccc(F)cc1)N1CC[C@@]2(O)CCCC[C@H]2C1,inactive: 0.994%,
COc1ccc(S(=O)(=O)NC(C)C(=O)Nc2ccc3c(c2)OCO3)cc1OC (stereo not given),inactive: 2.47%,
Oc1ccc(/C=N/NC(=S)Nc2cccnc2)c(O)c1,inactive: 11.5%,
O=C(CN1C(=O)/C(=C2/SC(=S)N(CCS(=O)(=O)O)C2=O)c2ccccc21)Nc1cccc(Br)c1,inactive: 4.31%,
O=C(NCC(=O)N(c1ccccc1F)C(C(=O)NC1CCCC1)c1cccnc1)c1ccco1 (stereo not given),inactive: -1.39%,
O=C(NC1CCCCC1)C(c1ccccc1)N(Cc1cccnc1)C(=O)c1csnn1 (stereo not given),inactive: 9.91%,
CCOP(=O)(OCC)/C(=N/OC(=O)c1ccc(Cl)cc1Cl)C(N)=O,inactive: -3.85%,
CCc1nnc(NS(=O)(=O)c2ccccc2)s1,inactive: 20.6%,
CCOCCOC(=O)c1[nH]c2c(c1C)C(=O)CC(c1cc(OC)c(OC)c(OC)c1)C2 (stereo not given),inactive: 16.6%,
COc1ccc(CCNC(=O)Nc2ccc([N+](=O)[O-])cc2)cc1OC,inactive: 4.87%,
CCN(CCN1CCCC1)C(=O)c1cc(COc2ccccc2SC)on1,inactive: -4.49%,
Cc1ccccc1CNC(=O)C(=O)Nc1nccs1,inactive: 11.8%,
Cc1ccc(S(=O)(=O)NC(=O)Nc2ccc(C)cn2)cc1,inactive: -0.0837%,
COc1cccc(NC(=O)CN2C(=O)NC(Cc3c[nH]c4ccccc34)C2=O)c1 (stereo not given),inactive: -16.9%,
CN(C(=O)CSc1nc2cc([N+](=O)[O-])ccc2n1-c1ccc(F)cc1)C1CCS(=O)(=O)C1 (stereo not given),inactive: -3.33%,
COc1ccc(OC)c(C2C/C(=N/O)C(C)C(c3cc(OC)ccc3OC)N2)c1 (stereo not given),inactive: -6.32%,
Cc1c(C2=CCN(S(=O)(=O)c3ccc(Cl)cc3)CC2)c2ccccc2n1C,inactive: 16%,
CC(C)Nc1nc(-c2ccccn2)nc(-c2ccccc2)c1C#N,inactive: 7.26%,
Cc1ccc2nc(SCC(=O)c3c(N)n(C)c(=O)n(C)c3=O)[nH]c2c1,inactive: 0.652%,
C/C(Cn1nnc2ccccc21)=N/OC(=O)c1c(F)cccc1F,inactive: -0.194%,
CCC(=O)c1ccc(OC(=O)c2cnccn2)cc1,inactive: -17.7%,
